Measured values: PubChem BioAssay AID463173 (ICCB-Longwood Screening Facility, Harvard Medical School, 2010)
Among all 52,000 compounds or so, about 4,300 (8.3%) were called active. Cut-off read from the data, not from the text of the source: active = survival mostly below about 52% (no sharp cut-off); inactive = mostly above about 56%. The list shows a part of the results.

What follows are molecules tested on DeltatarO mutant (assay: growth inhibition of S. aureus wild type versus tarO mutant, primary screen, teichoic acid synthesis inhibitors, RN4220, OD600 (AID 463173)). Conditions: OD600, 18 h, active compounds read low, screened at 18.75 µg/mL (by protocol).

Row | Compound | survival
1 | O=C(Nc1ccccc1C(=O)N1CCCCC1)c1nsc2ccccc12 | inactive: 134%
2 | CNC(=O)c1cnc2sc(N3CCC(C)CC3)nn2c1=O | inactive: 78%
3 | CCCCOc1cccc(C2c3c(-c4cc(C)ccc4O)n[nH]c3C(=O)N2CCOC)c1 (stereo not drawn) | active: 10%
4 | CCCCCOc1ccc(/C=C/C(=O)Nc2sc3c(c2C(=O)OCC)CCC3)cc1OC | inactive: 66%
5 | CCc1ccc(NC(=O)c2cc(=O)c3ccc(C)c(C)c3o2)cc1 | inactive: 91%
6 | COc1ccc(NC(=O)CNC(=O)Cn2ccc3ccccc3c2=O)cc1OC | inactive: 89%
7 | COC(=O)CN1C(=O)CSc2ccc(S(=O)(=O)Nc3ccc(C)c(Cl)c3)cc21 | inactive: 70%
8 | O=C(Cc1ccc(-c2ccccc2)cc1)NCCS(=O)(=O)N1CCN(c2ccccc2F)CC1 | inactive: 85%
9 | COc1cccc(NC(=O)C2CCCN(c3ncnc4onc(C)c34)C2)c1 (stereo not drawn) | inactive: 87%
10 | CCc1nnc(NC(=O)C2CCCO2)s1 (stereo not drawn) | inactive: 98%
11 | COc1cccc(C(=O)Nc2ccc3nc(SCCOc4ccccc4)sc3c2)c1 | inactive: 75%
12 | CCOC(=O)c1[nH]c(C)c(CN(C(C)=O)c2ccc(OCC)cc2)c1C | inactive: 83%
13 | O=C(CCNS(=O)(=O)c1ccc2c(c1)CCN2C(=O)C1CC1)Nc1ccc(OC(F)(F)F)cc1 | inactive: 91%
14 | CCC(C)NC(=O)Cn1ccc2cc(S(=O)(=O)N3CCCCCC3)ccc21 (stereo not drawn) | inactive: 118%
15 | CCc1ccc2oc(-c3cc(NC(=O)c4cccs4)ccc3Cl)nc2c1 | active: 19%
16 | O=C(Nc1ccc(F)c(F)c1)c1cc(S(=O)(=O)NC2CCCC2)ccc1F | inactive: 118%
17 | Cc1cccc(N2CCN(CCCNc3ncnc4onc(-c5ccc(F)cc5)c34)CC2C)c1 (stereo not drawn) | inactive: 79%
18 | Nc1nnc(CCCCn2c(-c3nonc3N)nc3ccccc32)s1 | inactive: 69%
19 | CCn1cc(S(=O)(=O)c2ccccc2)c(=O)c2cc(F)c(F)cc21 | inactive: 92%
20 | Cc1ccc(CN(C(=O)COc2ccc(F)cc2)C2CCS(=O)(=O)C2)o1 (stereo not drawn) | inactive: 95%
21 | O=C(NCC(c1cccnc1)N1CCc2ccccc21)c1ccc(Cl)cc1 (stereo not drawn) | inactive: 52%
22 | CCc1ccc(CN2CCC(C(=O)N(C)CCc3ccc(OC)c(OC)c3)CC2)cc1 | inactive: 81%

Row | Compound | survival
23 | CCOc1ccc(N(CC)C(=O)Cn2cnc3sc(C)c(S(=O)(=O)N4CCN(c5ncccn5)CC4)c3c2=O)cc1 | inactive: 61%
24 | CC(C)CCNC(=O)c1ccc2nc(Cc3ccccc3)oc2c1 | inactive: 55%
25 | Cc1cc(NS(=O)(=O)c2ccc(NC(=O)COc3cc(C)c(Br)cc3C(C)C)cc2)no1 | active: 13%
26 | COc1ccc(-c2cc(C(F)(F)F)nc(SCC(=O)NC(C)c3ccccc3)n2)cc1 (stereo not drawn) | inactive: 60%
27 | Cc1ccc(CCNC(=O)c2ccc3c(c2)N(Cc2cccc(F)c2)C(=O)c2ccccc2S3)cc1 | inactive: 94%
28 | COc1cccc2cc(C(=O)Nc3ccc(C)cc3)c(=O)oc12 | inactive: 91%
29 | CCOC(=O)c1ccc(NC(=O)C2=C(C)C(=O)OC23CCN(C(C)C)CC3)cc1 | inactive: 70%
30 | Cc1ccc2c(=O)cc(C(=O)Nc3sc4c(c3C(=O)NCc3cccnc3)CCCC4)oc2c1 | inactive: 76%
31 | Cc1nc(-c2ccc(S(=O)(=O)NCc3ccccc3Cl)cc2)co1 | inactive: 85%
32 | CCCCN(CCCC)C(=O)c1c[nH]c2ccc(S(=O)(=O)Nc3cccc(Cl)c3C)cc2c1=O | inactive: 101%
33 | CCCN1C(C(=O)c2ccccc2)=C(OC(=O)COc2ccc(C)cc2)c2ccccc2S1(=O)=O | active: 19%
34 | COC(=O)CN1C(C(=O)c2ccccc2)=C(OC(=O)c2ccccc2)c2ccccc2S1(=O)=O | inactive: 49%
35 | Cc1ccc(NC(=O)CCCn2nc(C)c3c(C)n(-c4ccccc4)nc3c2=O)c(Cl)c1 | inactive: 89%
36 | Cc1ccc(NC(=O)C2CCCN(S(=O)(=O)c3cccs3)C2)c(C)c1 (stereo not drawn) | inactive: 81%
37 | O=C(Nc1c2c(nn1-c1ccc(Cl)cc1)CS(=O)(=O)C2)c1ccc(Br)cc1 | active: 52%
38 | COc1cccc(NC(=O)N(Cc2nc3ccccc3c(=O)[nH]2)C2CCCCC2)c1 | inactive: 83%
39 | CCCSCCCNC(=O)Cn1c(-c2cccs2)cc2ccccc21 | inactive: 77%
40 | CCOC(=O)c1cc(NC(=O)c2ccc(F)cc2)c(=O)n2c1oc1ccc(Cl)cc12 | inactive: 127%
41 | Cc1cc(O)c(CN2CCN(c3ccccc3)CC2)c2oc(=O)cc(C)c12 | inactive: 51%
42 | Cn1c(=O)sc2cc(NS(=O)(=O)c3ccc(C(C)(C)C)cc3)ccc21 | inactive: 92%
43 | Cc1ccc(S(=O)(=O)c2nc(-c3cccs3)oc2N2CCC(C)CC2)cc1 | active: 8%
44 | CC(=O)N1CCc2c(sc3c2c(=O)n(-c2ccccc2C)c(=O)n3CC(=O)Nc2ccccc2)C1 | inactive: 69%

Row | Compound | survival
45 | Cc1c(C(=O)Nc2c(F)cccc2F)sc2ncn(Cc3ccccc3F)c(=O)c12 | inactive: 76%
46 | COc1ccc(C(=O)NCc2cn3ccc(C)cc3n2)cc1 | inactive: 96%
47 | CN(C)C(=O)c1ccc(S(=O)(=O)NCc2ccc(Cl)cc2)s1 | inactive: 119%
48 | CCCCN(CC)C(=O)CSc1nc2c(sc3ccccc32)c(=O)n1CCc1ccccc1 | inactive: 119%
49 | CCOc1ccc2[nH]c(=O)c(CN(C(=O)Nc3ccccc3)C3CC3)cc2c1 | inactive: 92%
50 | CCc1ccccc1NC(=O)Cn1c(=O)n(-c2ccc(C)cc2)c(=O)c2cc(OC)c(OC)cc21 | inactive: 91%
51 | COC(=O)c1scc(-c2ccc(C)cc2)c1S(=O)(=O)N1CCN(c2cccc(Cl)c2)CC1 | inactive: 76%
52 | CCN(CCCNC(=O)Cn1ncc2c([nH]c3ccccc32)c1=O)c1cccc(C)c1 | inactive: 96%
53 | CCc1ccccc1NC(=O)CN(c1cc(C(F)(F)F)ccc1Cl)S(=O)(=O)c1ccccc1 | active: 44%
54 | COc1cc(Nc2nc3c(S(=O)(=O)c4ccccc4)nnn3c3ccc(Cl)cc23)cc(OC)c1 | inactive: 72%
55 | COc1ccccc1Nc1cc(C(=O)NCCCN(C)C2CCCCC2)c2ccccc2n1 | inactive: 118%
56 | O=C(COc1ccc(Cl)cc1)OCc1cc(=O)n2nc(C3CCCCC3)sc2n1 | inactive: 88%
57 | Cc1ccc2c(c1)N(C(=O)CCC(=O)NCc1ccccc1F)CC(C)O2 (stereo not drawn) | inactive: 104%
58 | Cc1cc(C)cc(NC(=O)[C@H]2O[C@@H]3OC(C)(C)O[C@@H]3[C@H]3OC(C)(C)O[C@H]32)c1 | inactive: 99%
59 | CCOC(=O)c1ccc2c(c1)N(Cc1cc(C)ccc1C)C(=O)c1ccccc1S2(=O)=O | inactive: 85%
60 | CC(C)CC(=O)NC1CC(=O)N(c2ccc3c(c2)OCCO3)C1 (stereo not drawn) | inactive: 97%
61 | CCCCNC(=O)CSc1nc2cc3c(cc2c(=O)n1CCCC(=O)NCc1ccc(OC)cc1)OCO3 | inactive: 61%
62 | CN(Cc1ccccc1)c1nc2c(S(=O)(=O)c3cccc(Cl)c3)nnn2c2ccsc12 | active: 36%
63 | COc1cccc(C(=O)NC2CCCC2)c1 | inactive: 75%
64 | CCC1CN(S(=O)(=O)c2cc(-c3cc(C)no3)ccc2OC)c2cc(Cl)ccc2O1 (stereo not drawn) | inactive: 62%
65 | COC(=O)c1ccccc1NC(=O)NCc1ccc2c(c1)CCN2C(=O)c1ccccc1 | inactive: 77%
66 | O=C1CN(C(=O)c2ccc(S(=O)(=O)N3CCCC3)cc2)C(c2ccc(F)cc2)c2cc(Br)ccc2N1 (stereo not drawn) | inactive: 177%

Row | Compound | survival
67 | O=S(=O)(NCCc1csc2nc(-c3ccc(Cl)cc3)nn12)c1cccs1 | inactive: 84%
68 | Cc1ccc2c(c1)N(C(=O)N1CCC(C(=O)Nc3cccc(F)c3)CC1)CCO2 | inactive: 74%
69 | CC1CCN(C(=O)CN2CC(C)Sc3ccccc32)CC1 (stereo not drawn) | inactive: 72%
70 | COc1ccc(-c2cn3nc(SCC(=O)Nc4cccc(C)c4C)ccc3n2)cc1 | inactive: 80%
71 | CCCC(O)=NS(=O)(=O)c1ccc(N=NN(C)C)cc1 | inactive: 94%
72 | Cc1ccc(NS(=O)(=O)c2ccc(-n3cccn3)cc2)c(Br)c1 | inactive: 72%
73 | COc1ccc(Nc2nc3ccccc3n3c(N)nnc23)cc1 | inactive: 79%
74 | Cc1ccccc1C(=O)N1CCC(c2nc(-c3ccc(S(=O)(=O)N4CCCC4)cc3)no2)CC1 | inactive: 102%
75 | Cc1cc(C)c2nc(N3CCCN(C(=O)c4ccco4)CC3)c(C#N)cc2c1 | inactive: 80%
76 | Cc1ccsc1CN(Cc1ccco1)c1cnc(S(C)(=O)=O)nc1C(=O)Nc1ccc(Cl)cc1 | active: 40%
77 | Cn1c(=O)oc2cc(S(=O)(=O)CCC(=O)NCc3ccc(Cl)cc3)ccc21 | inactive: 94%
78 | Clc1cccc(Nc2ncnc3c2nc2n3CCCCC2)c1 | active: 17%
79 | CCc1ccc(NC(=O)C2CCN(c3ncccn3)CC2)cc1 | inactive: 88%
80 | CC(C)C(=O)c1cn(CC(=O)NCc2cccs2)c2ccccc12 | inactive: 88%
81 | O=C(CCCCCn1c(=O)c2sccc2n(CC(=O)Nc2ccccc2F)c1=O)NCc1ccc2c(c1)OCO2 | inactive: 79%
82 | CCC(C)OC(=O)/C(C#N)=C/c1ccc(-c2ccc(Br)cc2)o1 (stereo not drawn) | active: 43%
83 | COc1cc(CN(C(=O)COc2ccccc2)c2ccccn2)cc(OC)c1OC | inactive: 75%
84 | Cc1ccc(C2CC(=O)Nc3c2c(C)nn3-c2nc(C)cc(C)n2)c(C)c1 (stereo not drawn) | inactive: 102%
85 | COC(=O)c1cc(-c2ccccc2)sc1N | inactive: 103%
86 | CCc1ccc(S(=O)(=O)c2nnn3c2nc(N(CC)Cc2ccccc2)c2cc(Cl)ccc23)cc1 | inactive: 73%
87 | Cc1cc2n(n1)CCCN2C(=O)Nc1ccccc1C(F)(F)F | inactive: 76%
88 | CCCCN(C)C(=O)CCC(=O)NNc1nc2ccccc2c2nc(C)nn12 | inactive: 91%
